Laboratory results taken from the supplement of paper PMC8291772.
± gives the standard error. Some of the results follow.

Target: terminal deoxynucleotidyl transferase (calf thymus) (UniProt P06526)
Assay: TdT poly-dT extension signal (Cy3 hybridisation fluorescence, uncapped minus capped) (fluorescence a.u.); higher = more efficient initiation of TdT extension
Settings: initiator chemistry: 2'-O-methyl-RNA, free 3'-OH (5'-tethered via HEG linker)
Outline: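 Mono- to pentamer initiators were made by photolithographic in situ synthesis on glass on a hexaethylene glycol linker, each as uncapped and DMTr-dT-capped replicates. Arrays were extended with 0.2 u/μL calf thymus TdT and 100 μM dTTP in TdT buffer plus 0.25 mM CoCl2 at 37 °C for 120 min, hybridized with Cy3-labelled rA18 probe at 4 °C and scanned at 532 nm. Extension signal is mean uncapped minus mean capped (background) fluorescence.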

UniProt P06526, sequence (P06526 whole entry): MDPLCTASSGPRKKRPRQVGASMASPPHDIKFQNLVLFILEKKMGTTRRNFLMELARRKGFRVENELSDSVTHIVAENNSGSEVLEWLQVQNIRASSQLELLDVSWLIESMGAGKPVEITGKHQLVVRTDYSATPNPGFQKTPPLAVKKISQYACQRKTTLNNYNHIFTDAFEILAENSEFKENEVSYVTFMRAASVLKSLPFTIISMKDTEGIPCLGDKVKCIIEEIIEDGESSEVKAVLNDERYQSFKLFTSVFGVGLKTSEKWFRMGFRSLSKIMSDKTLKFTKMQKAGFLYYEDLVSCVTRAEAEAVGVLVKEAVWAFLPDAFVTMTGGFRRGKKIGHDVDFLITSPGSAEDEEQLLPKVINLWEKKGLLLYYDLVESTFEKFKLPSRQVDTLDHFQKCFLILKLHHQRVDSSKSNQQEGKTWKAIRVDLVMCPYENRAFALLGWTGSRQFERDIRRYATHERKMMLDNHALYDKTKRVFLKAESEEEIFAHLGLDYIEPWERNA

| Sequence | TdT poly-dT extension signal |
| --- | --- |
| GUUGC | 1090 ± 52 |
| UUGGG | 303 ± 27 |
| CUCUA | 507 ± 44 |
| ACGUG | 304 ± 19 |
| CACAA | 923 ± 85 |
| ACUU | 284 ± 26 |
| CCUG | 284 ± 17 |
| UCUUA | 366 ± 28 |
| CAAAG | 703 ± 58 |
| GCAAG | 622 ± 50 |
| GAGGA | 668 ± 89 |
| UGCC | 487 ± 38 |
| CCAGG | 421 ± 37 |
| GCUGU | 406 ± 28 |
| GGUCU | 285 ± 19 |
| AGUAG | 319 ± 25 |
| AACUU | 369 ± 22 |
| CUUGA | 474 ± 41 |
| UCAGC | 1040 ± 72 |
| ACACU | 363 ± 25 |
| GGUC | 489 ± 33 |
| ACCG | 284 ± 32 |
| GUCUA | 477 ± 45 |
| GAUAG | 308 ± 27 |

| Sequence | TdT poly-dT extension signal |
| --- | --- |
| AAGA | 792 ± 74 |
| UUUG | 122 ± 8.3 |
| GACAA | 959 ± 65 |
| GUUAA | 554 ± 23 |
| CUGAU | 432 ± 28 |
| GGCUU | 336 ± 21 |
| ACUUC | 383 ± 30 |
| GACGC | 1120 ± 110 |
| GAGUA | 535 ± 52 |
| AGAG | 491 ± 39 |
| UUGUA | 313 ± 19 |
| CACGA | 613 ± 27 |
| CCAGA | 833 ± 99 |
| UUCAC | 726 ± 84 |
| AGUU | 341 ± 23 |
| AAGCG | 306 ± 17 |
| GCCGU | 446 ± 20 |
| CGCGU | 494 ± 35 |
| UAUAU | 322 ± 24 |
| CAUUC | 359 ± 30 |
| UAAU | 422 ± 28 |
| ACUUG | 225 ± 15 |
| CCGC | 1130 ± 55 |
| GCCCC | 552 ± 28 |

| Sequence | TdT poly-dT extension signal |
| --- | --- |
| CAUCC | 487 ± 55 |
| GAUAA | 651 ± 58 |
| UCCUG | 243 ± 39 |
| ACCAA | 904 ± 52 |
| UGGA | 586 ± 52 |
| AUAA | 722 ± 81 |
| ACUCU | 323 ± 37 |
| CGGAU | 408 ± 37 |
| AUCGC | 1130 ± 62 |
| AUGCU | 347 ± 32 |
| CGCA | 449 ± 38 |
| AAGGC | 1170 ± 40 |
| AUAUC | 359 ± 44 |
| CAAUG | 254 ± 19 |
| UAGGU | 382 ± 32 |
| CUCC | 396 ± 35 |
| GUUUC | 374 ± 14 |
| GCCUA | 541 ± 50 |
| ACAGC | 998 ± 56 |
| GAUCA | 392 ± 33 |
| CGCCG | 324 ± 46 |
| GGGUU | 444 ± 48 |
| CCAC | 807 ± 63 |
| AACAA | 945 ± 62 |

| Sequence | TdT poly-dT extension signal |
| --- | --- |
| CGCAA | 873 ± 82 |
| UAUUA | 345 ± 19 |
| UGGAU | 446 ± 23 |
| UUCUC | 414 ± 38 |
| CUGCA | 344 ± 25 |
| GUAUA | 460 ± 36 |
| GUUCU | 282 ± 15 |
| AGUC | 483 ± 34 |
| GGGAC | 918 ± 67 |
| GUUA | 365 ± 27 |
| AGCCC | 548 ± 39 |
| CAGUG | 259 ± 24 |
| GGCGC | 903 ± 120 |
| CUCA | 445 ± 55 |
| UCAG | 482 ± 55 |
| AACGG | 350 ± 26 |
| GUUAU | 226 ± 26 |
| UAUGG | 158 ± 9.8 |
| GUGAG | 373 ± 34 |
| AAUGC | 1140 ± 77 |
| CUUUC | 305 ± 28 |
| AUUAG | 265 ± 27 |
| GUUCA | 318 ± 48 |
| UCCC | 510 ± 35 |

| Sequence | TdT poly-dT extension signal |
| --- | --- |
| CUCG | 250 ± 23 |
| CCAGC | 1240 ± 140 |
| AUGA | 370 ± 27 |
| ACCAC | 681 ± 58 |
| CGGUC | 520 ± 44 |
| UACGU | 440 ± 24 |
| AGCUA | 525 ± 35 |
| AAAG | 538 ± 32 |
| CAGGG | 361 ± 24 |
| CGGAA | 852 ± 50 |
| GUCGU | 482 ± 23 |
| CCUA | 528 ± 39 |
| GAUGC | 948 ± 49 |
| GAUUA | 366 ± 28 |
| CUCGU | 483 ± 44 |
| UACCC | 402 ± 50 |
| GACCG | 235 ± 18 |
| UAGUU | 301 ± 17 |
| CAGCU | 361 ± 26 |
| CUUAC | 422 ± 38 |
| UCACG | 290 ± 31 |
| CUCGA | 502 ± 48 |
| UAUAG | 326 ± 23 |
| UUGGU | 366 ± 24 |

| Sequence | TdT poly-dT extension signal |
| --- | --- |
| UAUGU | 312 ± 19 |
| UCAGG | 384 ± 36 |
| UCGCG | 302 ± 17 |
| UCUC | 456 ± 37 |
| AGAGC | 1140 ± 83 |
| GGCU | 351 ± 38 |
| CGAG | 465 ± 36 |
| AUUCC | 377 ± 21 |
| GUACU | 312 ± 20 |
| CUGGC | 1050 ± 57 |
| CCUGU | 408 ± 37 |
| CCGUU | 355 ± 61 |
| AUCAU | 449 ± 42 |
| UCCAC | 732 ± 54 |
| GACCA | 345 ± 31 |
| AAUCC | 457 ± 50 |
| CGUCG | 262 ± 33 |
| ACCGC | 1100 ± 130 |
| GACAU | 597 ± 84 |
| GGUAC | 494 ± 42 |
| UAAUC | 440 ± 29 |
| ACUAC | 413 ± 38 |
| CCUUG | 208 ± 20 |
| CUAUG | 217 ± 21 |

| Sequence | TdT poly-dT extension signal |
| --- | --- |
| AACG | 332 ± 49 |
| AGUAU | 328 ± 38 |
| GUCAC | 736 ± 91 |
| AAACC | 441 ± 32 |
| AUCUG | 236 ± 23 |
| GGAAA | 1010 ± 95 |
| UGCCU | 311 ± 27 |
| CCCAC | 818 ± 43 |
| UAUU | 267 ± 28 |
| CGGUG | 263 ± 29 |
| GGGGA | 632 ± 40 |
| UGAAU | 458 ± 37 |
| CGCGA | 521 ± 66 |
| CGUAC | 482 ± 33 |
| GGGUA | 515 ± 18 |
| GAGU | 518 ± 58 |
| CACA | 425 ± 22 |
| CGGAG | 465 ± 66 |
| UCUAG | 296 ± 18 |
| CGCC | 633 ± 69 |
| ACCCG | 218 ± 24 |
| CCAAU | 578 ± 47 |
| CUUC | 363 ± 30 |
| AAUG | 175 ± 23 |

| Sequence | TdT poly-dT extension signal |
| --- | --- |
| AUUGG | 176 ± 11 |
| AUAAC | 590 ± 41 |
| AUCGU | 432 ± 41 |
| AUUA | 347 ± 29 |
| AUCAG | 458 ± 47 |
| CGUGC | 1220 ± 81 |
| GUAUU | 234 ± 13 |
| GCGUA | 498 ± 32 |
| GAGAC | 862 ± 91 |
| UUUAC | 399 ± 22 |
| AAUGA | 403 ± 20 |
| CUCAA | 1050 ± 96 |
| GCGU | 492 ± 29 |
| GUACG | 337 ± 57 |
| UACGA | 548 ± 56 |
| GGUUU | 235 ± 14 |
| GGUCG | 185 ± 10 |
| UGCGA | 538 ± 49 |
| UGCGG | 324 ± 29 |
| AAGUC | 522 ± 33 |
| AAUAG | 440 ± 42 |
| AAUA | 536 ± 37 |
| AGCAC | 784 ± 48 |
| UACGC | 1190 ± 92 |

| Sequence | TdT poly-dT extension signal |
| --- | --- |
| UCGUA | 502 ± 30 |
| UAGGC | 1110 ± 68 |
| CCUCG | 256 ± 17 |
| GUGGU | 461 ± 28 |
| CUAAC | 634 ± 40 |
| AACCG | 293 ± 26 |
| GUCUG | 218 ± 15 |
| AAAA | 1010 ± 74 |
| GUGUA | 427 ± 58 |
| GAGG | 414 ± 37 |
| CAAGC | 1300 ± 67 |
| CGAGG | 359 ± 19 |
| GUAGU | 420 ± 54 |
| UCGCU | 401 ± 25 |
| GUAGG | 360 ± 30 |
| CUGAA | 834 ± 120 |
| UGUCU | 243 ± 37 |
| AGAUU | 308 ± 27 |
| AAGG | 383 ± 41 |
| CGCCA | 408 ± 65 |
| AUUGU | 280 ± 17 |
| AUAG | 369 ± 22 |
